Data reported in the supplement of paper PMC12217912.
The list shows a part of the results. The full chains were built here from the parent and the listed change. Values near 0.05 are background.

B1: TEV protease; numbered along this chain (parent)
chain: MGESLFKGPRDYNPISSSICHLTNESDGHTTSLYGIGFGPFIITNKHLFRRNNGTLVVQSLHGVFKVKDTTTLQQHLVDGRDMIIIRMPKDFPPFPQKLKFREPQREERICLVTTNFQTKSMSSMVSDTSCTFPSGDGIFWKHWIQTKDGQCGSPLVSTRDGFIVGIHSASNFTNTNNYFTSVPKNFMELLTNQEAQQWVSGWRLNADSVLWGGHKVFMVKPEEPFQPVKEATQL

Variants of: B1
Assay: raw area under fraction-flipped curve 0-4 h after induction (AUC4h, not background-subtracted), DNA-recorder readout of cleavage of the substrate (dimensionless); higher = more cleavage of the substrate by the protease variant
Conditions: temperature: 34 °C; time window: 0-4 h after rhamnose induction
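Note: Bxb1 expression induced with 0.2% (w/v) L-rhamnose at OD600 near 0.5, cultures sampled hourly, flipped fraction per protease–substrate barcode pair counted by paired-end Illumina sequencing.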

| Variant | area with substrate ENLYDQS | area with substrate ENLYEQS | area with substrate ENLYGQS | area with substrate ENLYHQS | area with substrate ENLYIQS | area with substrate ENLYKQS | area with substrate ENLYLQS | area with substrate ENLYMQS | area with substrate ENLYNQS | area with substrate ENLYPQS | area with substrate ENLYQQS | area with substrate ENLYTQS | area with substrate ENLYVQS | area with substrate ENLYWQS | area with substrate ENLYYQS | area with substrate ENLYCQS | area with substrate ENLYRQS | area with substrate ENLYSQS |
| --- | --- | --- | --- | --- | --- | --- | --- | --- | --- | --- | --- | --- | --- | --- | --- | --- | --- | --- |
| L56N | 0.035 | 0.0336 | 0.0384 | 0.0498 | 0.0456 | 0.0423 | 0.0433 | 0.0379 | 0.0611 | 0.0456 | 0.0472 | 0.0417 | 0.0494 | 0.048 | 0.0517 |  |  |  |
| F226L |  | 0.0883 | 0.0455 |  |  | 0.0466 | 0.111 | 0.105 | 0.0648 | 0.0604 |  |  |  |  | 0.0653 | 0.0825 | 0.0518 |  |
| Q234E | 0.0537 | 0.074 | 0.0803 | 0.0596 | 0.127 |  |  | 0.086 | 0.0618 | 0.0628 | 0.0702 |  |  | 0.0775 |  | 0.0649 | 0.073 | 0.0722 |
| G150S | 0.0571 | 0.0575 | 0.0579 |  |  | 0.0466 | 0.0729 | 0.063 | 0.0655 | 0.0606 |  | 0.052 |  | 0.0453 |  | 0.0621 | 0.0693 | 0.062 |
| L99T | 0.0539 | 0.0553 | 0.0601 | 0.0731 |  | 0.06 |  |  | 0.0765 | 0.0588 | 0.0598 |  |  |  |  |  | 0.054 |  |
| G166Y |  | 0.0728 |  |  | 0.0504 | 0.0781 |  |  | 0.0502 | 0.053 |  |  |  |  |  | 0.0408 |  |  |
| F6E | 0.0985 | 0.0587 | 0.0659 | 0.0296 |  |  |  |  | 0.0721 |  | 0.05 |  | 0.108 | 0.072 |  |  |  |  |
| V67E | 0.0462 | 0.0549 |  |  |  |  |  |  |  | 0.0738 |  | 0.0801 |  |  |  |  | 0.0399 |  |
| N53H | 0.0599 | 0.0681 |  | 0.0811 | 0.115 | 0.0596 | 0.0886 |  | 0.0682 | 0.076 |  | 0.0854 | 0.099 | 0.0673 |  |  | 0.0633 | 0.0709 |
| V58A | 0.0619 |  |  |  | 0.105 |  |  |  |  |  |  |  |  |  | 0.0564 |  |  |  |
| V58I | 0.0369 |  | 0.0538 | 0.0682 | 0.113 |  | 0.0923 | 0.107 |  | 0.0092 |  | 0.0903 | 0.118 |  |  |  |  |  |
| V58W | 0.0367 | 0.0651 |  | 0.0485 | 0.0552 | 0.037 |  | 0.0481 |  |  |  |  |  |  |  |  |  | 0.0549 |
| S158K |  | 0.0527 | 0.0571 | 0.0533 |  | 0.0634 |  | 0.0252 |  |  | 0.0546 | 0.0495 |  |  |  | 0.0527 | 0.044 |  |
| S158Q |  | 0.0258 |  |  | 0.0719 | 0.0548 |  |  | 0.0567 |  | 0.0461 |  |  |  |  | 0.0582 | 0.0448 | 0.0492 |
| P94L | 0.0701 |  |  | 0.131 |  | 0.0516 |  |  |  |  |  |  | 0.116 | 0.106 |  |  | 0.0617 |  |
| S18D | 0.0514 | 0.0574 |  | 0.0636 | 0.1 | 0.0819 |  |  |  | 0.0719 |  | 0.0684 |  |  |  |  | 0.0779 | 0.052 |
| F38S | 0.0539 | 0.0586 | 0.0565 | 0.0542 | 0.0851 | 0.0527 |  | 0.0824 | 0.0556 | 0.0867 | 0.0569 |  | 0.0802 | 0.0793 |  |  | 0.0562 | 0.0566 |
| S201F | 0.047 | 0.0837 |  | 0.0656 |  |  |  |  |  |  |  |  |  |  |  | 0.0819 | 0.0736 | 0.077 |
| Q59E | 0.0634 | 0.0866 | 0.0661 | 0.0681 |  | 0.0577 | 0.0678 |  | 0.0644 | 0.0851 | 0.0402 | 0.0722 | 0.101 | 0.0668 |  |  | 0.08 | 0.0739 |

| Variant | area with substrate ENLYDQS | area with substrate ENLYEQS | area with substrate ENLYGQS | area with substrate ENLYHQS | area with substrate ENLYIQS | area with substrate ENLYKQS | area with substrate ENLYLQS | area with substrate ENLYMQS | area with substrate ENLYNQS | area with substrate ENLYPQS | area with substrate ENLYQQS | area with substrate ENLYTQS | area with substrate ENLYVQS | area with substrate ENLYWQS | area with substrate ENLYYQS | area with substrate ENLYCQS | area with substrate ENLYRQS | area with substrate ENLYSQS |
| --- | --- | --- | --- | --- | --- | --- | --- | --- | --- | --- | --- | --- | --- | --- | --- | --- | --- | --- |
| P9D | 0.0682 |  |  | 0.0613 |  | 0.0082 |  | 0.0953 |  | 0.0674 | 0.112 |  | 0.0979 | 0.0629 |  |  |  |  |
| P9E | 0.0602 | 0.0629 | 0.0653 | 0.0488 |  | 0.0279 | 0.0734 | 0.0679 | 0.057 |  |  |  | 0.0721 |  |  |  |  |  |
| F101G | 0.0471 | 0.0507 | 0.0543 | 0.0465 |  |  |  |  | 0.0232 |  |  |  | 0.0549 |  | 0.0454 |  |  |  |
| I86H | 0.0616 |  |  |  | 0.0527 | 0.0346 |  |  | 0.035 |  |  |  |  | 0.0446 | 0.0238 |  | 0.0307 | 0.0296 |
| V78Q | 0.0463 | 0.0568 | 0.0505 |  |  |  |  | 0.074 |  |  |  |  |  |  |  |  | 0.0679 |  |
| A170D |  |  |  |  |  |  |  |  | 0.0397 |  |  |  |  |  |  | 0.0575 |  |  |
| H215T |  | 0.0517 |  | 0.0568 | 0.0559 |  |  |  |  | 0.0672 | 0.0657 |  |  |  |  | 0.0768 |  |  |
| V210I |  |  | 0.0382 | 0.0646 |  |  |  |  | 0.0553 | 0.0755 |  |  |  |  |  | 0.07 |  |  |
| G153H | 0.0485 | 0.0604 | 0.0492 | 0.0319 | 0.0286 | 0.0127 | 0.0467 |  | 0.048 | 0.0458 | 0.0396 | 0.0463 | 0.0526 | 0.0525 |  | 0.036 |  | 0.0246 |
| H143V | 0.0756 | 0.0634 | 0.0587 | 0.0575 | 0.0913 | 0.0731 | 0.0705 |  | 0.0619 |  | 0.0623 | 0.0637 | 0.0849 | 0.0511 | 0.0674 | 0.0761 | 0.056 | 0.065 |
| I36G | 0.0401 |  | 0.0203 |  |  |  | 0.0316 | 0.0661 | 0.0608 |  |  |  | 0.0434 | 0.0593 |  |  | 0.0654 |  |
| G162T | 0.0558 | 0.0562 |  | 0.0651 | 0.109 | 0.0579 |  |  | 0.0611 | 0.0613 | 0.0713 | 0.0798 |  | 0.0854 | 0.0872 | 0.0781 | 0.0562 |  |
| I15R | 0.0491 |  |  | 0.0534 | 0.0505 |  |  | 0.0471 |  |  |  |  |  | 0.0476 |  |  |  | 0.057 |
| I84L | 0.0776 | 0.0632 |  |  | 0.0931 |  | 0.094 | 0.0834 | 0.0743 | 0.041 | 0.0681 |  | 0.0899 | 0.0854 | 0.0758 |  | 0.0659 |  |
| T181D |  | 0.0557 |  | 0.0616 | 0.0584 | 0.0461 |  | 0.0621 |  | 0.0542 | 0.0687 |  |  |  |  | 0.0768 | 0.0589 | 0.0637 |
| L205Q | 0.0455 |  |  |  |  |  |  | 0.0616 |  | 0.0247 |  |  |  | 0.0595 |  | 0.0427 |  |  |
| V229W |  | 0.0678 | 0.0769 | 0.0669 |  |  | 0.0701 |  | 0.0637 | 0.0612 | 0.0601 | 0.0796 | 0.139 | 0.0762 | 0.0631 | 0.08 | 0.0664 |  |
| K100P | 0.0528 | 0.0781 | 0.0641 |  | 0.124 | 0.101 |  | 0.0995 | 0.0807 | 0.0745 |  | 0.0756 | 0.101 | 0.0617 | 0.0683 |  | 0.0534 | 0.0704 |
